Measured values as given in ChEMBL document CHEMBL4888484, “Replenishing the malaria drug discovery pipeline: Screening and hit evaluation of the MMV Hit Generation Library 1 (HGL1) against asexual blood stage Plasmodium falciparum ,using a nano luciferase reporter read-out” (2022).
“And” between values parts separate entries of the source, which are not always exact repeats. Equal entries are not always repeated. Among all 150,000 compounds or so, about 540 (0.36%) showed an effect of 50% or more. Some of the results follow.

System: Plasmodium falciparum
Experiment: Primary screen in NF54 nanoGlo assay, in single point, at 2uM, 72h; a lower Z score goes with more inhibition
Type: functional, Erythrocyte
Conditions: timepoint 72 hour

SMILES: Cc1cc(N2CCN(C)CC2)nc(C2CC2)n1
- % Inhibition: -12%
- Z score: 1.58

SMILES: c1cc2c(c(-c3cnccn3)c1)CCNC2
- % Inhibition: -4%
- Z score: 0.84

SMILES: CNS(=O)(=O)c1ccc([C@@H]2CC(=O)Nc3cc4oc(=O)[nH]c4cc32)cc1
- % Inhibition: 9%
- Z score: -0.88

SMILES: CN1CC[C@@H]2CN(C(=O)C3C(C)(C)C3(C)C)C[C@@H]21
- % Inhibition: -8%
- Z score: 1.13

SMILES: CN(C)C(=O)Oc1ccc(OCc2n(C)c3ccccc3[n+]2C)cc1
- % Inhibition: -11%
- Z score: 2.15

SMILES: CCCS(=O)(=O)N1C[C@@H]2C[C@H](C1)c1c(-c3ccc4ccccc4c3)ccc(=O)n1C2
- % Inhibition: -1%
- Z score: 0.15

SMILES: Cc1ccc2c(CC(=O)N3CCN(C)C[C@@H]3C)c[nH]c2c1
- % Inhibition: -6%
- Z score: 0.71

SMILES: CCc1ccc(CN2CCN(C)[C@@]3(CCNC(=O)CC3)C2)nc1
- % Inhibition: -1%
- Z score: 0.21

SMILES: CCC(CC)CNCCc1cnn(C)c1C
- % Inhibition: -10%
- Z score: 1.38

SMILES: CCCS(=O)(=O)N1C[C@@H]2C[C@H](C1)c1ccc(-c3ccc(OC)cc3)c(=O)n1C2
- % Inhibition: -1%
- Z score: 0.13

SMILES: Cc1ncc(CNc2ccn(CC(F)F)n2)c(C)n1
- % Inhibition: -11%
- Z score: 1.52

SMILES: CC(C)(C)C1CCC(N2CCC[C@H](O)C2)CC1 (stereo partly drawn)
- % Inhibition: -14%
- Z score: 2.15

SMILES: CC(C)=CCN[C@@H](C)Cn1cc(C)cn1
- % Inhibition: -2%
- Z score: 0.31

SMILES: C[C@H]1CN(C(=O)c2cccc3[nH]c(=O)oc23)CC2(CCC2)O1
- % Inhibition: 9%
- Z score: -1.08

SMILES: CCOC(Cn1cc(C(=O)NCCC2CCCCC2)nn1)OCC
- % Inhibition: -17%
- Z score: 1.94

SMILES: COCc1cc(-c2c(C#N)c(N)nc3c2N2CCC3CC2)ccc1OC
- % Inhibition: -4%
- Z score: 0.5

SMILES: CN1CC2(C1)CN(C(=O)Cc1ccccc1)C[C@@H]1C[C@@H](O)CN12
- % Inhibition: -1%
- Z score: 0.12

SMILES: CC1CN2CCCC2CN1S(=O)(=O)c1cccnc1 (stereo not drawn)
- % Inhibition: -2%
- Z score: 0.5

SMILES: CN1CCC[C@@]2(CCN(C(=O)c3ccc(OCC(F)F)nc3)C2)C1
- % Inhibition: 0%
- Z score: -0.08

SMILES: COc1cccc([C@H]2CN(c3ccnc(N)n3)[C@@H]3C4CCN(CC4)[C@H]23)c1
- % Inhibition: -1%
- Z score: 0.16

SMILES: Cc1cc(CN2CCN(C(=O)Cc3n[nH]c(=O)c4ccccc34)CC2)on1
- % Inhibition: -10%
- Z score: 1.82

SMILES: CC(Cc1ccccc1Br)NC(C)c1cccnc1 (stereo not drawn)
- % Inhibition: 2%
- Z score: -0.27

SMILES: Cc1cc(CN2CCC3CCC(C2)N3C(C)C)on1 (stereo not drawn)
- % Inhibition: -10%
- Z score: 1.29

SMILES: Cc1sc2ncnc(N3CCN4CCC[C@H]4C3)c2c1C
- % Inhibition: -5%
- Z score: 0.64

SMILES: CCc1c(C(=O)NC2CC2)c(=O)cc(C)n1C[C@H]1CCCN1CC
- % Inhibition: 0%
- Z score: -0.06

SMILES: CN1CC[C@@](OC(=O)c2ccccc2)(c2ccccc2)C(C)(C)C1
- % Inhibition: -13%
- Z score: 2.13

SMILES: CN1N=C(c2c(O)n(C)c(=O)n(C)c2=O)C[C@H]1c1ccccc1
- % Inhibition: -21%
- Z score: 3.03

SMILES: CN(C(=O)C1CC12CCCCC2)C1CN2CCC1CC2 (stereo not drawn)
- % Inhibition: -8%
- Z score: 1.54

SMILES: O=C(Oc1cccc(OC(=O)N2CCOCC2)c1)N1CCOCC1
- % Inhibition: 5%
- Z score: -0.99

SMILES: C=C(C)COc1ccc(NC(=O)N[C@H]2CN3CCC2CC3)cc1
- % Inhibition: 4%
- Z score: -0.69

SMILES: CN(Cc1ccc2ccccc2n1)C(=O)CN1CC2(CCCC2)CC1=O
- % Inhibition: -4%
- Z score: 0.55

SMILES: C1=COC(CNC(Cc2ccccn2)c2ccccc2)CC1 (stereo not drawn)
- % Inhibition: -6%
- Z score: 0.8

SMILES: C=CCCC(CN1C[C@H]2CC=CC[C@H]2C1)Oc1cc(CC)ncn1 (stereo partly drawn)
- % Inhibition: -27%
- Z score: 2.39

SMILES: Cc1ccccc1-c1noc(=O)n1Cc1nc(C(C)C)no1
- % Inhibition: -5%
- Z score: 0.49

SMILES: CC(C)(c1ccccc1)c1noc([C@H]2C[C@H]3CC[C@@H]2N3)n1
- % Inhibition: -1%
- Z score: 0.16

SMILES: Nc1ccc2c(c1)CC1(C(=O)N(Cc3ccccc3)C(=O)N=C1O)C1CCCCCN21 (stereo not drawn)
- % Inhibition (2 µM): 0% and -8%

SMILES: Clc1cnc(Cn2cnc3c2CCNC32CCOCC2)c(Cl)c1
- % Inhibition: -9%
- Z score: 1.51

SMILES: CCc1ccc(Cn2nnc(C(=O)N[C@H]3CCCn4ncnc43)c2C)cc1
- % Inhibition: 4%
- Z score: -0.56

SMILES: CCCCn1c(C)c(CC(=O)N2CC[C@H](N(C)C)C2)c2c1CCCC2=O
- % Inhibition: -13%
- Z score: 1.85

SMILES: CCCc1ccc(CN2CCN([C@H]3CN4CCC3CC4)CC2)o1
- % Inhibition: -7%
- Z score: 0.66

SMILES: Cc1ccc2occ(CC(=O)N3CCC[C@H](N(C)Cc4nccc(C)n4)C3)c2c1
- % Inhibition: 10%
- Z score: -1.27

SMILES: Cc1ccc(CC(=O)N2CCN(Cc3cc(C)no3)CC2)cn1
- % Inhibition: -10%
- Z score: 1.51

SMILES: O=C(N[C@H]1CN2CCC1CC2)c1cc(Br)cc2nc[nH]c12
- % Inhibition: -23%
- Z score: 2.66

SMILES: Cc1noc(C)c1C(=O)N1CC[C@@H]2CN(Cc3cccnc3)[C@@H]2C1
- % Inhibition: -20%
- Z score: 2.59

SMILES: COc1ccccc1CNC(=O)Oc1ccccc1
- % Inhibition: -5%
- Z score: 0.66

SMILES: CCc1nc(CN2CCN3C(=O)OC[C@H]3C2)n[nH]1
- % Inhibition: -11%
- Z score: 2.06

SMILES: CCc1nc(NCC23COCCN2CCOC3)c2ccsc2n1
- % Inhibition: -5%
- Z score: 1.03

SMILES: O=C(c1cnc2ccccc2n1)N1CCC2(CC1)OCCO2
- % Inhibition: -6%
- Z score: 1.04

SMILES: O=C(NCCCn1ccnc1)C(Cl)(Cl)Cl
- % Inhibition: -5%
- Z score: 1

SMILES: O=C(NC[C@H]1C[C@@H]2CC[N@]1C[C@@H]2CN1CCN(c2ccccn2)CC1)Nc1ccccc1
- % Inhibition: 6%
- Z score: -0.97

SMILES: Cc1cc(=O)c(C(=O)N[C@H]2COC[C@@H]2N2CCOCC2)cn1C
- % Inhibition: -7%
- Z score: 1.06

SMILES: O=C(Nc1ccc2c(c1)OCCCO2)c1cnn(Cc2ccccc2)c1
- % Inhibition: -2%
- Z score: 0.27

SMILES: CO[C@@H](Cn1cc(C(N)=O)cn1)C1CCCC1
- % Inhibition: -12%
- Z score: 1.58

SMILES: CC(C)c1cc(NCc2cn(C(C)C)c(=O)[nH]c2=O)ncn1
- % Inhibition: -14%
- Z score: 1.56

SMILES: O=C(Cn1nnc2ccccc21)Nc1ccc(-c2noc(=O)[nH]2)cc1
- % Inhibition: -3%
- Z score: 0.39

SMILES: COc1ccccc1N1CCN2c3c(F)cccc3CC3(C(=O)NC(=O)N(c4ccccc4)C3=O)C2C1 (stereo not drawn)
- % Inhibition: 0%
- Z score: 0.02

SMILES: O=C(O)[C@H]1CN(Cc2ccccc2)CC12CCC2
- % Inhibition: -10%
- Z score: 1.49

SMILES: O=C(NCc1cccc(Cl)c1)c1cn(CCN2CCNCC2)nn1
- % Inhibition: 11%
- Z score: -2.23

SMILES: C1CCN(C2(c3nc([C@H]4CCOC4)no3)CCCCC2)CC1
- % Inhibition: -1%
- Z score: 0.16

SMILES: C[C@H](OC(=O)c1ccc2cn[nH]c2c1)C(=O)Nc1ccc(C#N)c(Cl)c1
- % Inhibition: 3%
- Z score: -0.37

SMILES: C[C@H](NC(=O)N1CCN2CCC1CC2)c1ccc(OC(F)F)cc1
- % Inhibition: -3%
- Z score: 0.37

SMILES: COc1c(Br)cccc1CCNC1CCOC1C (stereo not drawn)
- % Inhibition: -8%
- Z score: 1.26

SMILES: CC(C)Oc1ccccc1-c1ccc2c(c1)CNCC2
- % Inhibition: 10%
- Z score: -0.98

SMILES: Cn1ncnc1CNC(C)(C)Cc1ccc(C(F)(F)F)cc1
- % Inhibition: -5%
- Z score: 0.7

SMILES: CC(CC(=O)O)CC(=O)N1C2CCC1c1cnc(C(C)C)nc1C2 (stereo not drawn)
- % Inhibition: -9%
- Z score: 0.98

SMILES: CN1C[C@@H]2CCCN(S(=O)(=O)c3ccoc3)[C@@H]2C1
- % Inhibition: -2%
- Z score: 0.25

SMILES: COc1cc(-c2c(C#N)c(N)nc3c2N2CCC3CC2)ccc1F
- % Inhibition: -3%
- Z score: 0.3

SMILES: CCc1nccn1CC(C)N1C[C@H]2CC=CC[C@H]2C1 (stereo partly drawn)
- % Inhibition: -12%
- Z score: 1.19

SMILES: O=C1CN=C(c2ccccc2)c2cc(Br)ccc2N1
- % Inhibition: -1%
- Z score: 0.14

SMILES: N#Cc1nc(C2CC2)oc1N1CCNCC1
- % Inhibition: 3%
- Z score: -0.61

SMILES: CC(C)NC(C)C(O)c1ccc(Br)cc1 (stereo not drawn)
- % Inhibition: -9%
- Z score: 1.39

SMILES: Cc1ccccc1[C@H]1C[C@@H](O)[C@@H](O)[C@@H]1NCC1CCCC1
- % Inhibition: -3%
- Z score: 0.43

SMILES: C=CCC[C@H](C)Nc1ccc2c(c1)oc(=O)n2C
- % Inhibition: -20%
- Z score: 2.22

SMILES: CC(C)N(C)C(=O)CN(C)[C@@H](C)Cc1cnccn1
- % Inhibition: 6%
- Z score: -1.06

SMILES: CCC1CN2CCCC2CN1S(=O)(=O)CC (stereo not drawn)
- % Inhibition: -7%
- Z score: 1.05

SMILES: O=C1C2CCN(CC2)[C@H]1Cc1ccccc1F
- % Inhibition: -18%
- Z score: 3.41

SMILES: CCc1cnc(N2CCc3c(cnc(C)c3-c3noc(CNC(C)=O)n3)C2)nc1
- % Inhibition: 4%
- Z score: -0.47

SMILES: COC(c1ccccc1)C(C)NCCO (stereo not drawn)
- % Inhibition: 2%
- Z score: -0.23

SMILES: COc1ccc(-c2csc(-n3cc(C4=CCN(CCO)CC4)cn3)n2)cc1
- % Inhibition: 50%
- Z score: -5.49

SMILES: O=C(c1ccc(F)c(F)c1)N1C2CCC1c1cncnc1C2 (stereo not drawn)
- % Inhibition: -1%
- Z score: 0.14

SMILES: N#Cc1ccc(N2CCC3(CC2)OCCO3)cc1C(F)(F)F
- % Inhibition: -14%
- Z score: 1.86

SMILES: COc1ccc2c(c1)[C@@]1(CCN(C(=O)c3ccc(F)cc3)C1)C(=O)N2
- % Inhibition: -15%
- Z score: 1.82

SMILES: CC(C)C(=O)N1CC[C@@H]2COCCN(Cc3ccncc3)[C@@H]2C1
- % Inhibition: -11%
- Z score: 2.03

SMILES: O=C(c1cccc(F)c1)N1CCC2(CC1)N(c1ccccc1)C(=O)C[S@+]2[O-]
- % Inhibition: -8%
- Z score: 1.61

SMILES: CC(=O)Nc1ccc2n(c1)cc(-c1ccc(OC(=O)N(C)C)cc1)[n+]2C
- % Inhibition: -14%
- Z score: 1.69

SMILES: CN1CCC(OC(=O)Cc2ccccc2)CC1
- % Inhibition: -12%
- Z score: 1.11

SMILES: O[C@H]1C[C@@H]2CN(Cc3ccncc3)C[C@@H]2C[C@@H]1O
- % Inhibition: -1%
- Z score: 0.18
